In paper PMC12820563, “FoxP3 forms a head-to-head dimer in vivo and stabilizes its multimerization on adjacent microsatellites”:
The other results are listed elsewhere or left out.

These sequences were tested against T1, MBP-FoxP1dN (Mus musculus, UniProt P58462 326-579) (assay: PD-seq (MBP pull-down with sequencing); 20 mM Tris-HCl pH 7.5, 100 mM NaCl, 1.5 mM MgCl2, 0.4 uM protein, 0.1 uM dsDNA library, 30 min, room temperature, amylose pull-down; high values mean tight binding). Conditions: protein: recombinant; tags: His6-MBP; chain copies: 2; dsDNA, one strand shown.
T1 sequence: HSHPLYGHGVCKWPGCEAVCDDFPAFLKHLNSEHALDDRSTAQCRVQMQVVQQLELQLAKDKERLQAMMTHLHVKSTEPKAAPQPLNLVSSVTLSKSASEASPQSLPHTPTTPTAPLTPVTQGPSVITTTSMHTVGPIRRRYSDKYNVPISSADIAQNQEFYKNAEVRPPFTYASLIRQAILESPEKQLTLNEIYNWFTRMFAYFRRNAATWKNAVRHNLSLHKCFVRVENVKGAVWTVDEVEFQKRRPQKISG
Outline: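 In Tris pH 7.5 buffer with NaCl and MgCl2, 0.4 µM His6-MBP-tagged mouse FoxP3 or FoxP1 fragment lacking the N-terminus, from E. coli, met 0.1 µM Klenow-filled double-stranded degenerate DNA library for 30 min at room temperature. Three washes on amylose resin followed capture of the complexes, then proteinase K release of DNA, PCR barcoding and Illumina sequencing. Binding is taken as pooled-replicate reads-per-million enrichment of pull-down relative to input.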

Sequence | binding signal
GATGATTGTTCTCCCAGCTGATGAATTCCCCCTATCGAGTAAACAAATTTTCCTAATCTTTCTGTTCAAGCGCCATCTAC | 0.813 RPM ratio (pull-down/input)
GATGATTGTTCTCCCAGCTGATGAATTATGTTAATCGAGTAAACAAATTTTCCTAATCTTTCTGTTCAAGCGCCATCTAC | 1.21 RPM ratio (pull-down/input)
GATGATTGTTCTCCCAGCTGATGAATTCCACGACTCGAGTAAACAAATTTTCCTAATCTTTCTGTTCAAGCGCCATCTAC | 0.81 RPM ratio (pull-down/input)
GATGATTGTTCTCCCAGCTGATGAATTACACTGTTCGAGTAAACAAATTTTCCTAATCTTTCTGTTCAAGCGCCATCTAC | 1.23 RPM ratio (pull-down/input)
GATGATTGTTCTCCCAGCTGATGAATTTCTAGGCTCGAGTAAACAAATTTTCCTAATCTTTCTGTTCAAGCGCCATCTAC | 0.723 RPM ratio (pull-down/input)
GATGATTGTTCTCCCAGCTGATGAATTCACCGAATCGAGTAAACAAATTTTCCTAATCTTTCTGTTCAAGCGCCATCTAC | 0.939 RPM ratio (pull-down/input)
GATGATTGTTCTCCCAGCTGATGAATTAGCCGCATCGAGTAAACAAATTTTCCTAATCTTTCTGTTCAAGCGCCATCTAC | 1.07 RPM ratio (pull-down/input)
GATGATTGTTCTCCCAGCTGATGAATTTCACACCTCGAGTAAACAAATTTTCCTAATCTTTCTGTTCAAGCGCCATCTAC | 0.791 RPM ratio (pull-down/input)
GATGATTGTTCTCCCAGCTGATGAATTGGCCTTATCGAGTAAACAAATTTTCCTAATCTTTCTGTTCAAGCGCCATCTAC | 0.84 RPM ratio (pull-down/input)
GATGATTGTTCTCCCAGCTGATGAATTCAAGGTATCGAGTAAACAAATTTTCCTAATCTTTCTGTTCAAGCGCCATCTAC | 0.993 RPM ratio (pull-down/input)
GATGATTGTTCTCCCAGCTGATGAATTATCCTACTCGAGTAAACAAATTTTCCTAATCTTTCTGTTCAAGCGCCATCTAC | 1.03 RPM ratio (pull-down/input)
GATGATTGTTCTCCCAGCTGATGAATTATGTTGGTCGAGTAAACAAATTTTCCTAATCTTTCTGTTCAAGCGCCATCTAC | 1.87 RPM ratio (pull-down/input)
GATGATTGTTCTCCCAGCTGATGAATTTACTGCGTCGAGTAAACAAATTTTCCTAATCTTTCTGTTCAAGCGCCATCTAC | 1.22 RPM ratio (pull-down/input)
GATGATTGTTCTCCCAGCTGATGAATTGCAATTATCGAGTAAACAAATTTTCCTAATCTTTCTGTTCAAGCGCCATCTAC | 1.67 RPM ratio (pull-down/input)
GATGATTGTTCTCCCAGCTGATGAATTGATTTGGTCGAGTAAACAAATTTTCCTAATCTTTCTGTTCAAGCGCCATCTAC | 1.13 RPM ratio (pull-down/input)
GATGATTGTTCTCCCAGCTGATGAATTGAATGGTTCGAGTAAACAAATTTTCCTAATCTTTCTGTTCAAGCGCCATCTAC | 0.852 RPM ratio (pull-down/input)
GATGATTGTTCTCCCAGCTGATGAATTTCTTCCCTCGAGTAAACAAATTTTCCTAATCTTTCTGTTCAAGCGCCATCTAC | 0.885 RPM ratio (pull-down/input)
GATGATTGTTCTCCCAGCTGATGAATTGGAAGCTTCGAGTAAACAAATTTTCCTAATCTTTCTGTTCAAGCGCCATCTAC | 0.764 RPM ratio (pull-down/input)
GATGATTGTTCTCCCAGCTGATGAATTCACCAGATCGAGTAAACAAATTTTCCTAATCTTTCTGTTCAAGCGCCATCTAC | 0.9 RPM ratio (pull-down/input)
GATGATTGTTCTCCCAGCTGATGAATTAAAAACCTCGAGTAAACAAATTTTCCTAATCTTTCTGTTCAAGCGCCATCTAC | 0.874 RPM ratio (pull-down/input)
GATGATTGTTCTCCCAGCTGATGAATTCGTTCATTCGAGTAAACAAATTTTCCTAATCTTTCTGTTCAAGCGCCATCTAC | 0.858 RPM ratio (pull-down/input)

Sequence | binding signal
GATGATTGTTCTCCCAGCTGATGAATTAGATATCTCGAGTAAACAAATTTTCCTAATCTTTCTGTTCAAGCGCCATCTAC | 0.887 RPM ratio (pull-down/input)
GATGATTGTTCTCCCAGCTGATGAATTTAGGTCATCGAGTAAACAAATTTTCCTAATCTTTCTGTTCAAGCGCCATCTAC | 0.942 RPM ratio (pull-down/input)
GATGATTGTTCTCCCAGCTGATGAATTTGACGACTCGAGTAAACAAATTTTCCTAATCTTTCTGTTCAAGCGCCATCTAC | 0.806 RPM ratio (pull-down/input)
GATGATTGTTCTCCCAGCTGATGAATTCCAGGTCTCGAGTAAACAAATTTTCCTAATCTTTCTGTTCAAGCGCCATCTAC | 0.749 RPM ratio (pull-down/input)
GATGATTGTTCTCCCAGCTGATGAATTTGGTGGTTCGAGTAAACAAATTTTCCTAATCTTTCTGTTCAAGCGCCATCTAC | 0.899 RPM ratio (pull-down/input)
GATGATTGTTCTCCCAGCTGATGAATTCCTGGGTTCGAGTAAACAAATTTTCCTAATCTTTCTGTTCAAGCGCCATCTAC | 0.781 RPM ratio (pull-down/input)
GATGATTGTTCTCCCAGCTGATGAATTTATGCATTCGAGTAAACAAATTTTCCTAATCTTTCTGTTCAAGCGCCATCTAC | 1.69 RPM ratio (pull-down/input)
GATGATTGTTCTCCCAGCTGATGAATTAGTCTTATCGAGTAAACAAATTTTCCTAATCTTTCTGTTCAAGCGCCATCTAC | 0.994 RPM ratio (pull-down/input)
GATGATTGTTCTCCCAGCTGATGAATTGCTGGAATCGAGTAAACAAATTTTCCTAATCTTTCTGTTCAAGCGCCATCTAC | 1.07 RPM ratio (pull-down/input)
GATGATTGTTCTCCCAGCTGATGAATTTTCATTTTCGAGTAAACAAATTTTCCTAATCTTTCTGTTCAAGCGCCATCTAC | 1.06 RPM ratio (pull-down/input)
GATGATTGTTCTCCCAGCTGATGAATTGCTAGTTTCGAGTAAACAAATTTTCCTAATCTTTCTGTTCAAGCGCCATCTAC | 1.12 RPM ratio (pull-down/input)
GATGATTGTTCTCCCAGCTGATGAATTTGACCGTTCGAGTAAACAAATTTTCCTAATCTTTCTGTTCAAGCGCCATCTAC | 0.748 RPM ratio (pull-down/input)
GATGATTGTTCTCCCAGCTGATGAATTACCTTCTTCGAGTAAACAAATTTTCCTAATCTTTCTGTTCAAGCGCCATCTAC | 1.02 RPM ratio (pull-down/input)
GATGATTGTTCTCCCAGCTGATGAATTTGTGCCCTCGAGTAAACAAATTTTCCTAATCTTTCTGTTCAAGCGCCATCTAC | 0.999 RPM ratio (pull-down/input)
GATGATTGTTCTCCCAGCTGATGAATTCCAATGGTCGAGTAAACAAATTTTCCTAATCTTTCTGTTCAAGCGCCATCTAC | 0.818 RPM ratio (pull-down/input)
GATGATTGTTCTCCCAGCTGATGAATTGCCGGTTTCGAGTAAACAAATTTTCCTAATCTTTCTGTTCAAGCGCCATCTAC | 0.955 RPM ratio (pull-down/input)
GATGATTGTTCTCCCAGCTGATGAATTCAATGCCTCGAGTAAACAAATTTTCCTAATCTTTCTGTTCAAGCGCCATCTAC | 0.901 RPM ratio (pull-down/input)
GATGATTGTTCTCCCAGCTGATGAATTCGCGTTCTCGAGTAAACAAATTTTCCTAATCTTTCTGTTCAAGCGCCATCTAC | 0.87 RPM ratio (pull-down/input)
GATGATTGTTCTCCCAGCTGATGAATTATTCTTTTCGAGTAAACAAATTTTCCTAATCTTTCTGTTCAAGCGCCATCTAC | 1.17 RPM ratio (pull-down/input)
GATGATTGTTCTCCCAGCTGATGAATTAGTAAGATCGAGTAAACAAATTTTCCTAATCTTTCTGTTCAAGCGCCATCTAC | 0.937 RPM ratio (pull-down/input)
GATGATTGTTCTCCCAGCTGATGAATTCGGTGAATCGAGTAAACAAATTTTCCTAATCTTTCTGTTCAAGCGCCATCTAC | 0.946 RPM ratio (pull-down/input)

Sequence | binding signal
GATGATTGTTCTCCCAGCTGATGAATTTCAACACTCGAGTAAACAAATTTTCCTAATCTTTCTGTTCAAGCGCCATCTAC | 0.901 RPM ratio (pull-down/input)
GATGATTGTTCTCCCAGCTGATGAATTTTAAAGATCGAGTAAACAAATTTTCCTAATCTTTCTGTTCAAGCGCCATCTAC | 0.92 RPM ratio (pull-down/input)
GATGATTGTTCTCCCAGCTGATGAATTGCCCTGGTCGAGTAAACAAATTTTCCTAATCTTTCTGTTCAAGCGCCATCTAC | 0.807 RPM ratio (pull-down/input)
GATGATTGTTCTCCCAGCTGATGAATTTAGAAAATCGAGTAAACAAATTTTCCTAATCTTTCTGTTCAAGCGCCATCTAC | 1.24 RPM ratio (pull-down/input)
GATGATTGTTCTCCCAGCTGATGAATTGTCGCTCTCGAGTAAACAAATTTTCCTAATCTTTCTGTTCAAGCGCCATCTAC | 0.972 RPM ratio (pull-down/input)
GATGATTGTTCTCCCAGCTGATGAATTCCTATGCTCGAGTAAACAAATTTTCCTAATCTTTCTGTTCAAGCGCCATCTAC | 0.836 RPM ratio (pull-down/input)
GATGATTGTTCTCCCAGCTGATGAATTTGGTCGATCGAGTAAACAAATTTTCCTAATCTTTCTGTTCAAGCGCCATCTAC | 0.857 RPM ratio (pull-down/input)
GATGATTGTTCTCCCAGCTGATGAATTCACCATGTCGAGTAAACAAATTTTCCTAATCTTTCTGTTCAAGCGCCATCTAC | 0.834 RPM ratio (pull-down/input)
GATGATTGTTCTCCCAGCTGATGAATTGGCAGTATCGAGTAAACAAATTTTCCTAATCTTTCTGTTCAAGCGCCATCTAC | 0.94 RPM ratio (pull-down/input)
GATGATTGTTCTCCCAGCTGATGAATTAGGATGTTCGAGTAAACAAATTTTCCTAATCTTTCTGTTCAAGCGCCATCTAC | 0.951 RPM ratio (pull-down/input)
GATGATTGTTCTCCCAGCTGATGAATTTACGTACTCGAGTAAACAAATTTTCCTAATCTTTCTGTTCAAGCGCCATCTAC | 1.31 RPM ratio (pull-down/input)
GATGATTGTTCTCCCAGCTGATGAATTCGTTTTATCGAGTAAACAAATTTTCCTAATCTTTCTGTTCAAGCGCCATCTAC | 0.925 RPM ratio (pull-down/input)
GATGATTGTTCTCCCAGCTGATGAATTGCGGGCATCGAGTAAACAAATTTTCCTAATCTTTCTGTTCAAGCGCCATCTAC | 1.16 RPM ratio (pull-down/input)
GATGATTGTTCTCCCAGCTGATGAATTACGTCGTTCGAGTAAACAAATTTTCCTAATCTTTCTGTTCAAGCGCCATCTAC | 0.997 RPM ratio (pull-down/input)
GATGATTGTTCTCCCAGCTGATGAATTTTAGATTTCGAGTAAACAAATTTTCCTAATCTTTCTGTTCAAGCGCCATCTAC | 0.909 RPM ratio (pull-down/input)
GATGATTGTTCTCCCAGCTGATGAATTTTTTATCTCGAGTAAACAAATTTTCCTAATCTTTCTGTTCAAGCGCCATCTAC | 0.997 RPM ratio (pull-down/input)
GATGATTGTTCTCCCAGCTGATGAATTGTTACACTCGAGTAAACAAATTTTCCTAATCTTTCTGTTCAAGCGCCATCTAC | 1.43 RPM ratio (pull-down/input)
GATGATTGTTCTCCCAGCTGATGAATTAAGACAGTCGAGTAAACAAATTTTCCTAATCTTTCTGTTCAAGCGCCATCTAC | 0.806 RPM ratio (pull-down/input)
GATGATTGTTCTCCCAGCTGATGAATTGTTTGACTCGAGTAAACAAATTTTCCTAATCTTTCTGTTCAAGCGCCATCTAC | 1.17 RPM ratio (pull-down/input)
GATGATTGTTCTCCCAGCTGATGAATTAGGAGGCTCGAGTAAACAAATTTTCCTAATCTTTCTGTTCAAGCGCCATCTAC | 0.948 RPM ratio (pull-down/input)
GATGATTGTTCTCCCAGCTGATGAATTCCGGACGTCGAGTAAACAAATTTTCCTAATCTTTCTGTTCAAGCGCCATCTAC | 0.776 RPM ratio (pull-down/input)
